26 compounds from the antibiotic and cytotoxicity screens of Wong et al. (2023) can be followed below.

The list shows a part of the results.

The subject of one experiment is HSkMC. Put plainly: cytotoxicity call (relative viability < 0.9). The following applies: 10 µM.
Another experiment concerns HepG2. Briefly: cytotoxicity call (relative viability < 0.9). The following applies: 10 µM.
The next experiment has as its system S. aureus RN4220. Put plainly: growth inhibition call (relative growth <= 0.2). The following applies: 50 µM.

Consider `C[C@H](CO)N1C[C@H](C)[C@@H](CN(C)C(=O)Nc2ccc(C(F)(F)F)cc2)OCCCC[C@H](C)Oc2ccc(NC(=O)C3CCCCC3)cc2C1=O`, for which the cytotoxicity call in the experiment with HSkMC and in the experiment on HepG2 was “inactive” throughout. In the experiment with S. aureus RN4220, the growth inhibition call is “inactive”.

On to `C[C@@H]1CCCCO[C@H](CN(C)C(=O)Nc2ccc(F)cc2)[C@@H](C)CN([C@@H](C)CO)C(=O)c2cc(NC(=O)Cc3ccccc3)ccc2O1`, for which the cytotoxicity call in the experiment with HSkMC and with HepG2 was “inactive” throughout. In the experiment on S. aureus RN4220, the growth inhibition call is “inactive”.

Consider `C[C@H]1CN([C@@H](C)CO)C(=O)Cc2cc(NC(=O)c3ccncc3)ccc2O[C@H]1CN(C)S(=O)(=O)c1ccc(Cl)cc1`, for which the cytotoxicity call in the experiment with HSkMC and in the experiment on HepG2 was “inactive” each time. Also, the growth inhibition call with S. aureus RN4220 is “inactive”.

With `CCS(=O)(=O)NCC[C@@H]1CC[C@@H](NC(=O)C2CCOCC2)[C@@H](CO)O1`, the cytotoxicity call with HSkMC and with HepG2 was “inactive” throughout. Also, the growth inhibition call in the experiment with S. aureus RN4220 was “inactive”.

In the case of `COc1ccc([C@@H]2CC(=O)c3c(O)cc(O[C@@H]4O[C@H](CO[C@@H]5O[C@@H](C)[C@H](O)[C@@H](O)[C@H]5O)[C@@H](O[C@H]5O[C@H](CO)[C@@H](O)[C@H](O)[C@H]5O)[C@H](O)[C@H]4O)cc3O2)cc1O`, the cytotoxicity call in the experiment on HSkMC and in the experiment with HepG2 was “inactive” each time. Further, in the experiment on S. aureus RN4220, the growth inhibition call was “inactive”.

With `C[C@@H]1CN([C@@H](C)CO)C(=O)c2cc(NS(=O)(=O)c3ccc(F)cc3)ccc2O[C@@H](C)CCCCO[C@@H]1CN(C)C(=O)Nc1ccccc1`, the cytotoxicity call in the experiment with HSkMC and in the experiment on HepG2 was “inactive” throughout. Also, the growth inhibition call in the experiment with S. aureus RN4220 was “inactive”.

In the case of `O=C(C[C@@H]1C[C@H]2c3cc(NS(=O)(=O)c4ccc(F)cc4)ccc3O[C@H]2[C@H](CO)O1)NCc1ccccn1`, the cytotoxicity call with HSkMC and in the experiment on HepG2 was “inactive” in each case. In the experiment on S. aureus RN4220, the growth inhibition call is “inactive”.

Take `C[C@H]1CN([C@@H](C)CO)S(=O)(=O)c2ccc(/C=C/c3ccccc3)cc2O[C@@H]1CN(C)C(=O)Nc1cc(F)ccc1F`: the cytotoxicity call in the experiment on HSkMC and with HepG2 was “inactive” in each case. Besides, the growth inhibition call with S. aureus RN4220 was “inactive”.

For `Cc1cccc(S(=O)(=O)N2C[C@H](O)COC[C@H]3O[C@H](CC(=O)NCc4ccncn4)CC[C@@H]32)c1`, the cytotoxicity call in the experiment with HSkMC and in the experiment on HepG2 was “inactive” throughout. The growth inhibition call in the experiment with S. aureus RN4220 was “inactive”.

On to `Cc1ccc(S(=O)(=O)Nc2cccc3c2O[C@H](CN(C)S(=O)(=O)c2ccccc2)[C@@H](C)CN([C@H](C)CO)C3=O)cc1`, for which the cytotoxicity call in the experiment with HSkMC and in the experiment with HepG2 was “inactive” each time. For the same compound, the growth inhibition call with S. aureus RN4220 is “inactive”.

`Cc1ccccc1S(=O)(=O)N1C[C@@H](O)COC[C@H]2O[C@H](CC(=O)NCc3ccccc3Cl)CC[C@@H]21`: the cytotoxicity call in the experiment with HSkMC and in the experiment on HepG2 was “inactive” in each case. Further, the growth inhibition call in the experiment with S. aureus RN4220 was “inactive”.

Turning to `COc1ccccc1NC(=O)N(C)C[C@@H]1Oc2ncc(Br)cc2C(=O)N([C@H](C)CO)C[C@@H]1C`, the cytotoxicity call in the experiment on HSkMC and in the experiment with HepG2 was “inactive” in each case. In addition, the growth inhibition call in the experiment on S. aureus RN4220 was “inactive”.

`C[C@@H]1CN([C@H](C)CO)C(=O)c2cc(NC(=O)Nc3ccc(F)cc3)ccc2O[C@@H](C)CCCCO[C@@H]1CN(C)Cc1ccc(C(=O)O)cc1`: the cytotoxicity call in the experiment with HSkMC and in the experiment with HepG2 was “inactive” throughout. Also, in the experiment with S. aureus RN4220, the growth inhibition call is “inactive”.

In the case of `C[C@@H]1CN([C@H](C)CO)C(=O)Cc2cc(NC(=O)CCC(F)(F)F)ccc2O[C@@H]1CN(C)S(C)(=O)=O`, the cytotoxicity call in the experiment with HSkMC and with HepG2 was “inactive” in each case. The growth inhibition call with S. aureus RN4220 is “inactive”.

For `Cc1noc(C)c1NC(=O)N(C)C[C@H]1OCCCC[C@@H](C)Oc2ccc(NS(=O)(=O)c3ccccc3)cc2C(=O)N([C@H](C)CO)C[C@H]1C`, the cytotoxicity call in the experiment on HSkMC and in the experiment with HepG2 was “inactive” in each case. In the experiment on S. aureus RN4220, the growth inhibition call was “inactive”.

Regarding `Cc1noc(C)c1NC(=O)N(C)C[C@H]1Oc2c(NC(=O)NC(C)C)cccc2C(=O)N([C@H](C)CO)C[C@H]1C`, the cytotoxicity call in the experiment with HSkMC and in the experiment on HepG2 was “inactive” each time. In addition, in the experiment with S. aureus RN4220, the growth inhibition call is “inactive”.

As for `CCN(CC)CCNC(=O)c1cc(S(C)(=O)=O)ccc1OC.Cl`, the cytotoxicity call in the experiment on HSkMC and in the experiment on HepG2 was “inactive” throughout. In the experiment on S. aureus RN4220, the growth inhibition call is “inactive”.

For `CCC[C@@H](O)C#Cc1cnc2c(c1)C(=O)N([C@H](C)CO)C[C@H](C)[C@H](CN(C)S(=O)(=O)c1ccc(F)cc1)O2`, the cytotoxicity call in the experiment on HSkMC and with HepG2 was “inactive” in each case. Moreover, the growth inhibition call with S. aureus RN4220 is “inactive”.

Consider `C[C@@H]1CN([C@H](C)CO)C(=O)c2cc(NC(=O)C3CCCCC3)ccc2O[C@@H](C)CCCCO[C@@H]1CN(C)C(=O)CCC(F)(F)F`, for which the cytotoxicity call in the experiment with HSkMC and with HepG2 was “inactive” in each case. The growth inhibition call with S. aureus RN4220 is “inactive”.

Consider `C[C@@H]1CCCCO[C@H](CN(C)C(=O)Nc2ccccc2)[C@H](C)CN([C@H](C)CO)C(=O)c2cc(NC(=O)C3CCCCC3)ccc2O1`, for which the cytotoxicity call in the experiment with HSkMC and in the experiment with HepG2 was “inactive” in each case. The growth inhibition call in the experiment on S. aureus RN4220 was “inactive”.

Consider `C[C@@H]1CN([C@@H](C)CO)C(=O)c2cccc(NC(=O)c3ccc(-c4nccs4)cc3)c2O[C@H]1CN(C)Cc1ccc(Oc2ccccc2)cc1`, for which the cytotoxicity call with HSkMC and with HepG2 was “inactive” in each case. In addition, the growth inhibition call with S. aureus RN4220 was “inactive”.

On to `COCC(=O)Nc1ccc2c(c1)OC[C@H](C)N(C(=O)Cc1cccnc1)C[C@H](C)[C@@H](OC)CN(C)C2=O`, for which the cytotoxicity call in the experiment with HSkMC and with HepG2 was “inactive” each time. Further, the growth inhibition call with S. aureus RN4220 was “inactive”.

In the case of `C[C@H]1CCCCO[C@H](CN(C)C(=O)Nc2ccccc2)[C@@H](C)CN([C@@H](C)CO)C(=O)c2cc(NC(=O)Cc3ccccc3)ccc2O1`, the cytotoxicity call in the experiment with HSkMC and in the experiment on HepG2 was “inactive” in each case. Besides, the growth inhibition call with S. aureus RN4220 is “inactive”.

`CN(C)[C@@H]1C(=O)[C@@H](C(N)=O)C(=O)[C@@]2(O)C(=O)[C@@H]3C(=O)c4c(O)c(NC(=O)CN5CCCC5)cc(F)c4C[C@H]3C[C@@H]12`: the cytotoxicity call with HSkMC and in the experiment with HepG2 was “inactive” throughout. Further, in the experiment with S. aureus RN4220, the growth inhibition call was “active”.

For `C[C@@H]1CN([C@H](C)CO)C(=O)Cc2cc(NC(=O)CCC(F)(F)F)ccc2O[C@@H]1CN(C)Cc1ccc(-c2ccccc2)cc1`, the cytotoxicity call in the experiment on HSkMC is “inactive”. In addition, in the experiment with HepG2, the cytotoxicity call is “active”. Further, the growth inhibition call in the experiment on S. aureus RN4220 is “inactive”.

As for `C[C@H]1CN([C@@H](C)CO)C(=O)Cc2cc(NC(=O)c3ccncc3)ccc2O[C@H]1CN(C)Cc1ccc(-c2ccccc2)cc1`, the cytotoxicity call in the experiment on HSkMC (human skeletal muscle cells) is “inactive”. Besides, the cytotoxicity call in the experiment with HepG2 was “active”. The growth inhibition call in the experiment on S. aureus RN4220 is “inactive”.
